# Measured values taken from publication PMC2689388, “Motor Mechanism for Protein Threading through Hsp104” (Molecular Cell, 2009).
# B1: Hsp104^N728A (natural protein)
# chain: not shown
# notes: also called Hsp104 N728A (sensor1); N728A mutant; source: purified as described in Wendler et al. (2007)
# Biological target: the molecule itself
# Test: cryo-EM structure; Hsp104 N728A 0.3 mg/ml in 20 mM HEPES (pH 7.5), 20 mM NaCl, 10 mM MgCl2, 1 mM DTT, 2-5 mM nucleotide (ATPγS, ATP or ADP); 6-fold symmetrised and asymmetric reconstructions; no crosslinker
protein,measurement,value
B1,stoichiometry N,6
